According to the supplement of paper PMC9446081:
The campaign covered roughly 39,000 compounds. About 220 (0.56%) showed activity. This is one part of the list.
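Note: static incubation at 37 °C against the wild-type strain, values averaged over two biological replicates.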

What follows are compounds tested on Escherichia coli K-12 BW25113 (assay: relative growth (OD600 normalised to plate interquartile mean) (fraction); higher = less growth inhibition, active = 0.2 or less). Conditions: 50 µM; LB; incubation time: overnight (16-24 h).
With `Cc1nn(C)cc1NC(=O)C[C@H]1CC[C@H]2[C@@H](COc3ccc(NC(=O)C4CCOCC4)cc3C(=O)N2C)O1` the relative growth was inactive: 1.
In the case of `C[C@@H]1CN([C@@H](C)CO)S(=O)(=O)c2ccc(C#CC(C)(C)O)cc2O[C@H]1CN(C)Cc1ccccc1`, the relative growth is reported as inactive: 1.01.
`C[C@@H]1CN([C@H](C)CO)C(=O)c2cc(NC(=O)CCN3CCOCC3)ccc2O[C@@H]1CN(C)S(=O)(=O)c1ccccc1` was tested, and the relative growth was inactive: 1.03.
With `C[C@@H]1CN([C@H](C)CO)C(=O)c2c(c3ccccc3n2C)-c2ccccc2CO[C@H]1CN(C)S(C)(=O)=O` the relative growth was inactive: 0.981.
`Cl.NC(CS)C(=O)O` (stereo not given) was tested, and the relative growth was inactive: 1.01.
With `COc1ccc(NC(=O)N(C)C[C@H]2Oc3c(NS(=O)(=O)c4cn(C)cn4)cccc3C(=O)N([C@H](C)CO)C[C@H]2C)cc1` the relative growth was inactive: 0.979.
`C[C@@H]1CN([C@H](C)CO)C(=O)Cc2cc(NS(C)(=O)=O)ccc2O[C@H]1CN(C)S(=O)(=O)c1ccc(F)cc1` was tested, and the relative growth was inactive: 1.02.
For `C[C@@H]1CCCCO[C@H](CN(C)C(=O)CCCN(C)C)[C@H](C)CN([C@H](C)CO)C(=O)c2cc(N(C)C)ccc2O1`, the relative growth was inactive: 0.959.
For `NS(=O)(=O)c1ccc(CCn2ccn(CC(=O)NCCC3=CCCCC3)c(=O)c2=O)cc1`, the relative growth was inactive: 0.898.
In the case of `C[C@@H]1CN([C@H](C)CO)C(=O)c2cc(C#Cc3cccc(F)c3)cnc2O[C@@H]1CN(C)Cc1ccccn1`, the relative growth is reported as inactive: 1.
With `C[C@H]1CN([C@@H](C)CO)C(=O)c2cc(NC(=O)Nc3ccc(F)cc3)ccc2O[C@@H]1CN(C)S(=O)(=O)c1cn(C)cn1` the relative growth was inactive: 0.996.
With `C[C@@H]1CN([C@H](C)CO)C(=O)c2cc(NC(=O)Nc3ccccc3)ccc2O[C@@H](C)CCCCO[C@H]1CN(C)S(=O)(=O)c1cccs1` the relative growth was inactive: 0.992.
`C[C@H](CO)N1C[C@H](C)[C@@H](CN(C)S(C)(=O)=O)Oc2ccc(NC(=O)Nc3ccc(F)cc3)cc2CC1=O` was tested, and the relative growth was inactive: 0.993.
`Cc1cc(=O)n(C(N)=S)[nH]1` was tested, and the relative growth was inactive: 0.961.
With `O=C(Nc1cccc2cccnc12)[C@@H]1[C@H](c2cc(Cl)cc(Br)c2)CC(=O)N1C(=O)OCc1ccccc1` the relative growth was inactive: 1.
For `C[C@@H]1CCCCO[C@@H](CN(C)C(=O)CCC(F)(F)F)[C@@H](C)CN([C@H](C)CO)C(=O)c2cc(NC(=O)Nc3ccccc3)ccc2O1`, the relative growth was inactive: 0.977.
`C[C@H](CO)N1C[C@H](C)[C@@H](CN(C)C(=O)Nc2ccc(C(F)(F)F)cc2)Oc2c(NC(=O)Nc3ccc(F)cc3)cccc2C1=O` was tested, and the relative growth was inactive: 0.975.
`c1ccc(-c2cc(-c3nc4ccccc4[nH]3)c3ccccc3n2)cc1` was tested, and the relative growth was inactive: 1.
`Cc1ccc(S(=O)(=O)N(C)C[C@@H]2OCCCC[C@H](C)Oc3ccc(NC(=O)c4ccccc4)cc3C(=O)N([C@@H](C)CO)C[C@H]2C)cc1` was tested, and the relative growth was inactive: 0.998.
With `C[C@H](CO)N1C[C@H](C)[C@H](CN(C)Cc2ccncc2)OCCCC[C@H](C)Oc2ccc(NC(=O)C3CCCCC3)cc2C1=O` the relative growth was inactive: 1.02.
In the case of `O=C(O)C[C@@H]1CC[C@H]2[C@@H](COC[C@@H](O)CN2S(=O)(=O)c2ccc(F)cc2)O1`, the relative growth is reported as inactive: 0.988.
In the case of `C[C@H](CO)N1C[C@H](C)[C@H](CN(C)Cc2ccc(C(=O)Nc3ccccc3N)cc2)Oc2ccc(NC(=O)CCC(F)(F)F)cc2CC1=O`, the relative growth is reported as inactive: 0.983.
In the case of `Cc1ccc(S(=O)(=O)N(C)C[C@H]2Oc3c(NS(=O)(=O)c4cccs4)cccc3C(=O)N([C@H](C)CO)C[C@H]2C)cc1`, the relative growth is reported as inactive: 1.02.
`COc1ccc(COC[C@]23N=C4SCc5ccccc5CN4[C@H](c4ccccc4O2)[C@H]3COC(=O)NCCCCCC(=O)NO)cc1` was tested, and the relative growth was inactive: 0.995.
For `C[C@H]1O[C@@H](OC[C@H]2O[C@@H](O[C@H]3CC[C@]4(C)[C@H]5CCC6=C(CC[C@@]7(C(=O)O[C@@H]8O[C@H](CO)[C@@H](O)[C@H](O)[C@H]8O[C@@H]8O[C@H](CO)[C@@H](O)[C@H](O)[C@H]8O)CCC(C)(C)C[C@@H]67)[C@]5(C)CC[C@H]4C3(C)C)[C@H](O)[C@@H](O)[C@@H]2O)[C@H](O)[C@@H](O)[C@@H]1O`, the relative growth was inactive: 0.994.
For `CCCC(=O)Nc1ccc2c(c1)C(=O)N(C)[C@H]1CC[C@H](CC(=O)NCCN3CCCCC3)O[C@@H]1CO2`, the relative growth was inactive: 1.03.
`C[C@@H]1CN([C@H](C)CO)C(=O)c2cc(-c3cccc(C#N)c3)cnc2O[C@@H]1CN(C)C(=O)C1CCOCC1` was tested, and the relative growth was inactive: 0.997.
In the case of `CC(C)CCCC(=O)N[C@@H](CCNCS(=O)(=O)O)C(=O)N[C@H](C(=O)N[C@@H](CCNCS(=O)(=O)O)C(=O)N[C@H]1CCNC(=O)[C@H]([C@@H](C)O)NC(=O)[C@H](CCNCS(=O)(=O)O)NC(=O)[C@H](CCNCS(=O)(=O)O)NC(=O)[C@H](CC(C)C)NC(=O)[C@H](CC(C)C)NC(=O)[C@H](CCNCS(=O)(=O)O)NC1=O)[C@@H](C)O`, the relative growth is reported as active: 0.0299.
For `CC(C)NC(=O)Nc1ccc2c(c1)CC(=O)N([C@@H](C)CO)C[C@H](C)[C@@H](CN(C)S(=O)(=O)c1ccccc1)O2`, the relative growth was inactive: 0.976.
`C[C@H]1CN([C@@H](C)CO)C(=O)Cc2cc(NC(=O)Nc3ccc(C(F)(F)F)cc3)ccc2O[C@@H]1CN(C)Cc1ccc(Oc2ccccc2)cc1` was tested, and the relative growth was inactive: 1.
For `Cc1ccc(S(=O)(=O)N(C)C[C@H]2Oc3c(NS(=O)(=O)c4ccccc4)cccc3C(=O)N([C@H](C)CO)C[C@H]2C)cc1`, the relative growth was inactive: 0.994.
For `Cc1noc(C)c1NC(=O)N(C)C[C@H]1Oc2c(NC(=O)Nc3cccc4ccccc34)cccc2C(=O)N([C@@H](C)CO)C[C@@H]1C`, the relative growth was inactive: 1.
For `COc1ccc([C@@H]([C@H](Cc2ccccc2)OC(C)=O)N2C[C@H](CC(=O)N(C)C)[C@@H]3C(=NO[C@H]3c3ccccc3)[C@@H]2Cc2ccccc2)cc1`, the relative growth was inactive: 1.03.
With `O=c1[nH]c(=O)n([C@H]2C[C@H](O)[C@@H](CO)O2)cc1F` the relative growth was active: 0.0339.
For `O=C1CN(N=Cc2ccc(-c3ccc([N+](=O)[O-])cc3)o2)C(=O)[N-]1.[Na+]`, the relative growth was inactive: 1.06.
In the case of `C[C@@H]1CN([C@H](C)CO)C(=O)CCCn2cc(nn2)CO[C@@H]1CN(C)C(=O)Nc1ccccc1C(F)(F)F`, the relative growth is reported as inactive: 0.998.
In the case of `CCOC(=O)CCC(=O)O[C@H]1[C@H](O[C@@H]2[C@@H](C)[C@H](O[C@H]3C[C@@](C)(OC)[C@@H](O)[C@H](C)O3)[C@@H](C)C(=O)O[C@H](CC)[C@@](C)(O)[C@H](O)[C@@H](C)C(=O)[C@H](C)C[C@@]2(C)O)O[C@H](C)C[C@@H]1N(C)C`, the relative growth is reported as active: 0.0544.
For `C[C@H](CO)N1C[C@H](C)[C@@H](CN(C)S(=O)(=O)c2ccc(F)cc2)Oc2ccc(NC(=O)Nc3cccc4ccccc34)cc2C1=O`, the relative growth was inactive: 0.979.
In the case of `Cc1noc(C)c1NC(=O)N(C)C[C@H]1Oc2c(NC(=O)C3CCOCC3)cccc2C(=O)N([C@H](C)CO)C[C@@H]1C`, the relative growth is reported as inactive: 1.03.
In the case of `O=C(Oc1ccc(C2CCCCC2)cc1)c1cccs1`, the relative growth is reported as inactive: 0.934.
In the case of `C[C@H]1CCCCO[C@@H](CN(C)C(=O)Nc2ccccc2)[C@@H](C)CN([C@@H](C)CO)C(=O)c2cc(NC(=O)CCC(F)(F)F)ccc2O1`, the relative growth is reported as inactive: 0.998.
In the case of `C[C@@H]1CN([C@H](C)CO)S(=O)(=O)c2ccc(C#Cc3cccnc3)cc2O[C@@H]1CN(C)CC1CCOCC1`, the relative growth is reported as inactive: 0.997.
With `CS(=O)(=O)[C@H]1CCNC1` the relative growth was inactive: 0.995.
In the case of `COc1ccc(/C=C2/NC(=O)NC2=O)cc1`, the relative growth is reported as inactive: 0.974.
With `C[C@H]1CN([C@@H](C)CO)C(=O)c2cccc(NS(=O)(=O)c3ccc(F)cc3)c2O[C@@H]1CN(C)S(=O)(=O)c1ccc(F)cc1` the relative growth was inactive: 0.992.
With `C[C@@H]1CN([C@@H](C)CO)C(=O)c2cc(NC(=O)c3ccncc3)ccc2O[C@@H]1CN(C)Cc1ccc2c(c1)OCO2` the relative growth was inactive: 0.979.
In the case of `CC(C)[C@@H](CC[C@@H](C)[C@H]1CC[C@H]2[C@@H]3[C@H](O)C[C@H]4C[C@@H](NCCCNCCCCN)CC[C@]4(C)[C@H]3CC[C@]12C)OS(=O)(=O)O`, the relative growth is reported as active: 0.137.
In the case of `COc1cccc(S(=O)(=O)N2C[C@H](O)COC[C@@H]3O[C@@H](CC(=O)N4CCN(c5ccccc5)CC4)CC[C@H]32)c1`, the relative growth is reported as inactive: 1.03.
For `COc1ccc2c3c(n(c2c1)C)[C@H](CO)N(Cc1cc(cc(c1)OC)OC)C[C@]13CCN(CC1)C(=O)Nc1cccc(c1)F`, the relative growth was inactive: 1.02.
With `COc1ccc(S(=O)(=O)Nc2ccc3c(c2)C(=O)N([C@H](C)CO)C[C@H](C)[C@@H](CN(C)Cc2ccc4c(c2)OCO4)OCCCC[C@H](C)O3)cc1` the relative growth was inactive: 1.
In the case of `NCC1OC(OC2C(CO)OC(OC3C(O)C(N)CC(N)C3OC3OC(CN)C(O)C(O)C3N)C2O)C(N)C(O)C1O.O=S(=O)(O)O.O=S(=O)(O)O.O=S(=O)(O)O` (stereo not given), the relative growth is reported as inactive: 1.2.
`C[C@H]1CN([C@@H](C)CO)S(=O)(=O)c2ccc(C#CC(C)(C)O)cc2O[C@H]1CN(C)Cc1ccc(F)cc1` was tested, and the relative growth was inactive: 0.909.
`O=C(O[C@@H]1O[C@@H]2COC(=O)c3cc(O)c(O)c(O)c3-c3c(cc(O)c(O)c3O)C(=O)O[C@H]2[C@H](OC(=O)c2cc(O)c(O)c(O)c2)[C@H]1OC(=O)c1cc(O)c(O)c(O)c1)c1cc(O)c(O)c(O)c1` was tested, and the relative growth was inactive: 0.514.
In the case of `C[C@H](CO)N1C[C@H](C)[C@@H](CN(C)C(=O)Cc2cccnc2)Oc2ncc(C#CC3(O)CCCC3)cc2C1=O`, the relative growth is reported as inactive: 1.01.
With `CC(C)c1c(C(=O)c2ccccc2)c(-c2ccccc2)c(-c2ccc(F)cc2)n1CC[C@@H](O)C[C@@H](O)CC(=O)O` the relative growth was inactive: 1.01.
